The campaign covered roughly 310,000 compounds. About 14,000 (4.5%) showed an effect of 50% or more. Effects have a minus sign here. The list shows a part of the results.

The text below walks through data of PMC4336329 (PLoS ONE, 2015).
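Further: peak tail current of the secondary pulse compared with the same well before compound.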

Chain of human ether-à-go-go-related gene (hERG) potassium channel (Q12809 whole entry, looked up): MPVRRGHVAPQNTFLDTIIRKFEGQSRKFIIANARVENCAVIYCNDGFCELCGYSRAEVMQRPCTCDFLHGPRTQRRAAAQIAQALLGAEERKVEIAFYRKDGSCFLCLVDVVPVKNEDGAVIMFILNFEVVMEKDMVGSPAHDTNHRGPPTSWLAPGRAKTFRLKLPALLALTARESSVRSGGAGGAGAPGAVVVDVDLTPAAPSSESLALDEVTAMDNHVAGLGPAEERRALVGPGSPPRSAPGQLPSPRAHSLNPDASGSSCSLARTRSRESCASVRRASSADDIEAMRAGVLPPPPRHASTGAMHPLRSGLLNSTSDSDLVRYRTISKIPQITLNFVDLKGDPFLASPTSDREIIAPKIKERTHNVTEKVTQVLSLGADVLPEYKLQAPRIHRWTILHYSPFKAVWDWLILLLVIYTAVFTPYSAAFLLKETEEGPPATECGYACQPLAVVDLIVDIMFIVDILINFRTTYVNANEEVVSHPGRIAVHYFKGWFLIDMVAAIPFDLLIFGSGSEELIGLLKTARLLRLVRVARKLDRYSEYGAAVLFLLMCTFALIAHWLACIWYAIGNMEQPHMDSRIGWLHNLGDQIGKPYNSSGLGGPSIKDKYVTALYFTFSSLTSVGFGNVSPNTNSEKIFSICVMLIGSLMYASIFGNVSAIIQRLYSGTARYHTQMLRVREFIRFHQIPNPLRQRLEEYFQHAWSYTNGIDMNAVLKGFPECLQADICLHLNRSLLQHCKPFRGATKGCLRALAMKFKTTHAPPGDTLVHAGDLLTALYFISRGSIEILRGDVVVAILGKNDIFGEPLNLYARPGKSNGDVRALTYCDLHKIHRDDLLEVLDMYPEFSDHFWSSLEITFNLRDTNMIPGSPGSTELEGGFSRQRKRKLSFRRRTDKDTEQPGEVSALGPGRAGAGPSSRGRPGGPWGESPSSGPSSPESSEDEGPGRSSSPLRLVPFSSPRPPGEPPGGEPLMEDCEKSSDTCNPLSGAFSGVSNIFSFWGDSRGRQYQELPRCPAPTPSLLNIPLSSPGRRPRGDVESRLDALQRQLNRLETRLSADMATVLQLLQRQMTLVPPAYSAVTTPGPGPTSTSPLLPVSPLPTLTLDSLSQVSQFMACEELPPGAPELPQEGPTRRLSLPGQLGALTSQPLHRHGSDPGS

This test has as its target human ether-à-go-go-related gene (hERG) potassium channel (human, UniProt Q12809). Nature of the test: primary screen, population patch clamp on CHO cells stably expressing hERG.
Regarding `CCOc1ccc(-n2cc(C(=O)Nc3cccc(Cl)c3)c3cc(OC)c(OC)cc3c2=O)cc1`, the “hERG current change (%, negative = inhibition) at 10uM” value is on record as -0.102%.
In the case of `CCC(=O)Nc1ccc2nc(SCC(=O)N3CCCC3)sc2c1`, the “hERG current change (%, negative = inhibition) at 10uM” value is reported as -13.2%.
With `COCCOC(=O)C1=C(C)N=C2SCCC(=O)N2C1/C=C/c1ccccc1` (centres unmarked), the “hERG current change (%, negative = inhibition) at 10uM” value is -15.3%.
As for `Cc1cccc(OCC(=O)N/N=C\c2cn(C)c3ccccc23)c1`, the “hERG current change (%, negative = inhibition) at 10uM” value is given as 7.68%.
Consider `CC(C)CNC(=O)CN(c1cccc(Cl)c1)S(C)(=O)=O`, for which the “hERG current change (%, negative = inhibition) at 10uM” value is given as 10.1%.
Consider `COC(=O)c1ccc(NC(=O)N2CCCC(C(=O)c3ccccc3OC)C2)cc1` (centres unmarked), for which the “hERG current change (%, negative = inhibition) at 10uM” value is recorded as -6.7%.
As for `O=C(Oc1ccc(N(C(=O)c2ccncc2)S(=O)(=O)c2cccs2)cc1)c1ccncc1`, the “hERG current change (%, negative = inhibition) at 10uM” value is 3.77%.
To `O=C1c2cccc(Cl)c2C(=O)c2c1cccc2N1CCCC1` belongs -9.16%.
Take `Cc1cccc(OCC(=O)NNC(=O)C2CCN(c3ncnc4sc(C)c(C)c34)CC2)c1`: the “hERG current change (%, negative = inhibition) at 10uM” value is recorded as -48.2%.
In the case of `O=C(NNC1CC(=O)N(c2ccc(Cl)cc2)C1=O)c1ccccn1` (centres unmarked), the “hERG current change (%, negative = inhibition) at 10uM” value was 8.32%.
Regarding `CCCCc1c(C)nc2ccccc2c1SCCC(=O)O`, the “hERG current change (%, negative = inhibition) at 10uM” value is reported as 14.8%.
With `COc1ccc(Nc2nc(C)cc(C)c2C#N)c(OC)c1`, the “hERG current change (%, negative = inhibition) at 10uM” value was 22.3%.
`CCOc1cc(/C=N\NC(=O)C2C(=O)NCC2c2ccccc2)ccc1OC` (centres unmarked): the “hERG current change (%, negative = inhibition) at 10uM” value is reported as 10.2%.
On to `Cc1ccccc1NC(=O)Cc1nc(-c2ccc3ccccc3c2)cs1`, for which the “hERG current change (%, negative = inhibition) at 10uM” value worked out at 6.09%.
Turning to `Cc1ccc2c(c1)CCCN2C(=O)c1cccs1`, the “hERG current change (%, negative = inhibition) at 10uM” value was -7.85%.
For `Cn1nnnc1SCC(=O)N1c2ccccc2Sc2ccccc21`, the “hERG current change (%, negative = inhibition) at 10uM” value is reported as -3.66%.
On to `COc1ccc(OC)c(CNC(=O)c2ccc(C)c(NC(=O)C3=C(C)OCCS3)c2)c1`, for which the “hERG current change (%, negative = inhibition) at 10uM” value is on record as -3.96%.
The figure for `CCOC(=O)c1ccccc1NC(=O)c1c(O)[nH]c(=S)[nH]c1=O` is 15.6%; for `Cc1ccccc1C(=O)Nc1ccc(N2CCOCC2)nc1` it is -12.1%; for `CCC12CN3CC(CC)(CN(C1)C3c1cccnc1)C2=O` (centres unmarked) it is -9.61%.
`CC(=O)Nc1ccc(S(=O)(=O)Oc2ccc3c(c2)C(C)=CC(C)(C)N3)cc1`: the “hERG current change (%, negative = inhibition) at 10uM” value is on record as -1.1%.
As for `[2H]C(CCOS(N)(=O)=O)c1ccccc1` (centres unmarked), the “hERG current change (%, negative = inhibition) at 10uM” value was determined as 20.3%.
For the compound `COc1ccc(/C(C)=N/NC(=O)CNC(=O)c2cccnc2)c(OC)c1`, the “hERG current change (%, negative = inhibition) at 10uM” value turned out to be 9.54%.
As to `O=C(NCCc1c[nH]c2ccccc12)C1CCN(Cc2ccc(Br)cc2)CC1`, the “hERG current change (%, negative = inhibition) at 10uM” value is reported as -54%.
For `COCCn1c(=NC(=O)CSCC(=O)NC2CCCCC2)sc2cc(OC)ccc21`, the “hERG current change (%, negative = inhibition) at 10uM” value was -18.5%.
For `Cn1cc(C(=O)NC2CC2)c2ccccc21`, the “hERG current change (%, negative = inhibition) at 10uM” value was determined as 16.6%.
To `Cc1ccc(/C=C/C(=O)Nc2cccc3ncccc23)o1` belongs 0.761%; to `CCN(CC)c1ccc(/C=N/NC(=O)c2c(-c3ccccc3)noc2C)cc1`, -9.56%; to `CC(=O)c1ccc(N2CCN(S(=O)(=O)c3ccc4c(c3)CC(=O)N4C)CC2)cc1`, -21.8%.
As for `CC(OC(=O)c1cc(=O)[nH]c2ccccc12)c1ccccc1` (centres unmarked), the “hERG current change (%, negative = inhibition) at 10uM” value is -7.72%.
`O=C(COC(=O)c1c2c(nc3ccccc13)/C(=C/c1cccc([N+](=O)[O-])c1)CCC2)NC1CCS(=O)(=O)C1` (centres unmarked): the “hERG current change (%, negative = inhibition) at 10uM” value is listed as -12%.
To `O=C(NCCCc1ccccc1)c1cc([N+](=O)[O-])ccc1Cl` belongs -12.3%; to `CCN(CC)C(=O)c1[nH]cnc1C(=O)NCc1ccc(CNC(=O)OC(C)(C)C)cc1`, 17.1%.
For the compound `C=CCOc1cccc(NC(=O)c2ccccc2SC)c1`, the “hERG current change (%, negative = inhibition) at 10uM” value came out at 11.3%.
The figure for `COC(=O)C1=C(O)/C(=C\c2ccc(OCC(=O)Nc3ccccc3OC)cc2)N=C1C` is 0.751%; for `Cc1c(C)n2c(SCC(=O)Nc3cccc4ccccc34)nnc2[nH]c1=O` it is 5.27%; for `CN1CCCC(OC(=O)c2ccc(C(C)(C)C)cc2)C1.Cl` (centres unmarked) it is -1.37%.
The figure for `COc1cccc(CN2CC(C(=O)NCCCCc3ccccn3)CCC2=O)c1` (centres unmarked) is -0.118%; for `Cc1c(C2C(C#N)=C(N)N(c3ccccc3C#N)C3=C2C(=O)CCC3)cnn1C` (centres unmarked) it is 0.578%; for `O=C(O)C1C2C=CC(O2)C1C(=O)Nc1ccccc1C(F)(F)F` (centres unmarked) it is -4.22%.
With `CC1=Nc2cc(C(=O)NCCN3CCOCC3)ccc2Sc2c(C)ccc(C)c21`, the “hERG current change (%, negative = inhibition) at 10uM” value is -14.9%.
`O=C(CCCc1ccccc1)N1CCc2ccccc21`: the “hERG current change (%, negative = inhibition) at 10uM” value is 10.1%.
As for `CCC(C)(C)NC(=O)C(c1cccn1C)N(C(=O)Cn1nnc2ccccc21)c1ccccc1OC` (centres unmarked), the “hERG current change (%, negative = inhibition) at 10uM” value was -8.89%.
The figure for `CN1CCC(NC(=S)Nc2cccc([N+](=O)[O-])c2)CC1` is 6.35%; for `CCOP(=O)(OCC)c1nc(-c2ccc(Br)cc2)oc1N1CCCCC1` it is -65.3%; for `CC(C)CNC(=O)c1ccc(NC(=O)c2ccccc2[N+](=O)[O-])cc1` it is 16.9%.
Regarding `O=C(Nc1ncn[nH]1)c1cc(S(=O)(=O)Nc2ccc(Cl)cc2)ccc1Cl`, the “hERG current change (%, negative = inhibition) at 10uM” value worked out at 3.7%.
The figure for `CN(C(=O)COC(=O)/C=C/c1ccccc1[N+](=O)[O-])c1ccccc1` is -33.4%; for `COc1ccc(S(=O)(=O)N(C)CC(=O)NCc2ccccn2)cc1` it is 17.2%; for `O=C(N/N=C/c1ccc(F)c(F)c1)c1cccc(S(=O)(=O)N2CCCCC2)c1` it is 10.4%.
Regarding `CCOc1ccc(Nc2nc(N)c([N+](=O)[O-])c(N3CCN(CC)CC3)n2)cc1`, the “hERG current change (%, negative = inhibition) at 10uM” value is given as -62.6%.
As to `COc1ccc(CC2CCOC2=O)cc1` (centres unmarked), the “hERG current change (%, negative = inhibition) at 10uM” value is on record as 1.62%.
With `Cc1cc(-c2cc(C(=O)NCc3ccccc3)on2)nc(S(C)(=O)=O)n1`, the “hERG current change (%, negative = inhibition) at 10uM” value worked out at 9.84%.
Turning to `CCc1ccc(OCC(=O)NNC(=O)c2cnccn2)c(Br)c1`, the “hERG current change (%, negative = inhibition) at 10uM” value was -5.95%.
Consider `CCOC(=O)c1[nH]c2ccccc2c1NC(=S)Nc1cccc(C)c1C`, for which the “hERG current change (%, negative = inhibition) at 10uM” value was -5.81%.
The figure for `Cc1nc2ccccc2nc1OCC(=O)Nc1ccc(F)cc1` is 15.8%.
